The list shows a part of the results.

This assay has as its system T1, C. trachomatis L2/434/Bu expressing GFP (CTL2-GFP).
T1 construct: L2/434/Bu GFP intracellular growth in HeLa cells
The arrangement: species or system HeLa; C. trachomatis total inclusion area by high-content imaging, normalised to DMSO. As to conditions: total inclusion area; 28.5 h, 10 µM; inhibitor. The procedure, abridged:
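High-content images of fixed, Hoechst-stained infected cultures supply inclusion area and count (growth) plus nuclei number (viability), complementing bulk GFP/resorufin fluorescence. MIC determination is unchanged from the primary assay.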
`CCOC(=O)CNC(=O)Nc1cc2ccccc2c(Br)n1` [CBK063279]: the “% of control remaining” value is listed as 104.273.

As to `CC(C)c1ccc(S(=O)(=O)Nc2ccc(Br)c(F)c2)cc1` [CBK044556], the “% of control remaining” value was 30.5654.

Turning to `Cc1cc(COc2nccnc2OC2CCN(CCN3CCOCC3)CC2)no1` [CBK082961T], the “% of control remaining” value is 83.1874.

On to `O=C(CCC1CCCO1)NC(Cc1ccsc1)c1cccnc1` (centres unmarked) [CBK285159], for which the “% of control remaining” value turned out to be 104.307.

For `CCOC(=O)c1ccc(NC(=O)c2ccccc2-c2nc(-c3ccccc3Cl)no2)cc1` [CBK268919], the “% of control remaining” value is on record as 108.978.

With `CCCc1cn(C2CCN(c3cc(-n4cc(C)cn4)ncn3)CC2)nn1` [CBK307127], the “% of control remaining” value is listed as 52.8765.

With `COc1ccc2c(c1)cc(C)c1n[nH]c(=O)n12` [CBK283766], the “% of control remaining” value worked out at 77.3901.

As to `C=C(C)Cn1c(SCC(C)C)nnc1-c1ccccc1C(=O)O` [CBK200093], the “% of control remaining” value amounted to 90.8321.

Take `Cc1ccc(NC(=O)c2nc3ccccc3[nH]2)c(C)n1` [CBK200296]: the “% of control remaining” value came out at 117.352.

With `O=C1CCCN1CCOc1nccnc1-c1ccccc1Cl` [CBK106999], the “% of control remaining” value worked out at 74.3079.

Regarding `C/N=C1/c2cn3ccccc3c2CCN1C` [CBK022058], the “% of control remaining” value came to 98.5421.

As for `O=C(CN1CCCCC1)N1CCCC1c1nc2ccccc2[nH]1` (centres unmarked) [CBK283935], the “% of control remaining” value came to 78.8758.

With `COCCN(C(=S)Nc1ccc(C)cc1Cl)C(C)c1cccnc1` (centres unmarked) [CBK294472], the “% of control remaining” value turned out to be 110.813.

Consider `CCOC(=O)CCCNC(=O)N1CCCC(CO)C1` (centres unmarked) [CBK156344], for which the “% of control remaining” value turned out to be 100.705.

Turning to `Cc1nc(-c2nnc(NC(=O)COc3ccc(Cl)cc3Cl)o2)cs1` [CBK287843], the “% of control remaining” value is listed as 103.694.

In the case of `CCN1CCC2(CC1)Nc1cc(Cl)c(S(N)(=O)=O)cc1S(=O)(=O)N2` [CBK010418C], the “% of control remaining” value amounted to 62.5002.

For `O=C(NCCc1ccc(O)cc1)c1ccc(-c2ccc(OC(F)(F)F)cc2)nc1` [CBK156224], the “% of control remaining” value was found to be 67.0367.

As for `O=C(NCc1ccccc1)[C@@H]1Cc2[nH]cnc2CN1C(=O)C1CCCCC1` [CBK288972], the “% of control remaining” value is given as 77.968.

Consider `CCC(C)CS(=O)(=O)c1nc(C)c(C)n1CC1CCCO1` (centres unmarked) [CBK305107], for which the “% of control remaining” value is 50.8692.

Regarding `COc1ccc(-c2ccccc2NS(=O)(=O)c2ccc3c(c2)CCC(=O)N3)cc1` [CBK286370], the “% of control remaining” value is reported as 108.255.

As to `O=C(CSc1nc2ccccc2[nH]1)Nc1cccc(C(=O)O)c1` [CBK263225], the “% of control remaining” value came to 79.5156.

For `Cc1ccc(C2(c3ccc(C)cc3)CC2C(=O)Nc2ccccc2[N+](=O)[O-])cc1` (centres unmarked) [CBK263591], the “% of control remaining” value was 105.11.

Turning to `COC(=O)[C@H]1CCc2ccccc2N1C(=O)c1ccco1` [CBK284259], the “% of control remaining” value is on record as 97.412.

On to `c1cncc(COc2nccnc2OC2CCN(Cc3cccnc3)CC2)c1` [CBK083158], for which the “% of control remaining” value came to 85.2523.

Take `Cc1ccc(C(=O)n2nc(-c3cccnc3)nc2N)cc1` [CBK288172]: the “% of control remaining” value was determined as 100.123.

Turning to `N#CCn1nnc(-c2ccc3c(c2)OCO3)n1` [CBK062663], the “% of control remaining” value is recorded as 102.93.

With `Cn1c(=O)c2c(nc(CN3CCOCC3)n2Cc2c(F)cccc2Cl)n(C)c1=O` [CBK269224], the “% of control remaining” value was 101.059.

Turning to `Cn1nc(-c2ccc(F)cc2)cc1C(=O)NCCn1ccnc1` [CBK281576], the “% of control remaining” value was determined as 109.61.

For the molecule `O=S(=O)(CCN1CCN(C(c2ccccc2)c2ccccc2)CC1)c1ccc(Cl)cc1` [CBK074810], the “% of control remaining” value was 88.6932.

Consider `CC1CCN(S(=O)(=O)c2ccc(C(=O)O)cc2)CC1` [CBK287195], for which the “% of control remaining” value is 95.6202.

In the case of `O=C(c1csc2c1CCCC2)N1CCc2c(nc[nH]c2=O)C1` [CBK283717], the “% of control remaining” value is listed as 90.4449.

Turning to `COc1cc(Nc2cccc(-c3ccsc3)n2)cc(OC)c1OC` [CBK036987], the “% of control remaining” value came to 83.3966.

As for `Cc1cc(C)c(C)c(S(=O)(=O)Nc2ccc(C(=O)NCc3ccccn3)cc2)c1C` [CBK267275], the “% of control remaining” value is recorded as 115.062.

Consider `Fc1ccc(Oc2nccnc2N2CCN(Cc3ccccc3F)CC2)cc1` [CBK083009T], for which the “% of control remaining” value was 95.762.

Turning to `CC(C)(C)c1ccc(-c2nc3ncccc3cc2O)cc1` [CBK073703], the “% of control remaining” value stood at 94.7202.

As to `Cc1ccc(CNc2oc(COc3ccc(Br)cc3)nc2C#N)cc1` [CBK074467], the “% of control remaining” value worked out at 81.4139.

`O=C(O)c1ccc(NC2CCS(=O)(=O)C2)cc1` (centres unmarked) [CBK287168]: the “% of control remaining” value is 126.14.

For the molecule `COc1ccc(CSc2nc(N)c3c4c(sc3n2)CCCC4)cc1` [CBK131876], the “% of control remaining” value was determined as 88.5742.

For the molecule `Cc1ccc(C)c2[nH]c(=O)c(CN(Cc3cccnc3)C(=O)NC3CCCCC3)cc12` [CBK068091], the “% of control remaining” value is 87.6869.

In the case of `CCc1nnc(NS(=O)(=O)c2ccc(Nc3ccc4nonc4c3[N+](=O)[O-])cc2)s1` [CBK261445], the “% of control remaining” value amounted to 87.1404.

In the case of `CC1=NNC(=O)C1CCC(=O)N/N=C/C(Br)=C/c1ccccc1` (centres unmarked) [CBK262929], the “% of control remaining” value is listed as 92.8774.

(Values after paper PMC12040169 (PLOS Biology, 2025).)
